Data on 167 variants can be found in the RNAGym collection of RNA variant scans (doi:10.7554/elife.90254).

B1: LINE1-mini (parent)
chain: GGCAGAGCUCAACACAGCGUGGCAAAGUGGCUGUGGCUAGACUGCC

Read counts are not given, so values of variants with three or more changes are uncertain.

The data set covers variants of B1. The data set is described as follows: self-cleavage, relative activity (ratio to wild type); higher = more cleavage; in vitro, sequencing; the parent is a self-cleaving ribozyme.
In the case of C18A G36U C42G U43A G44C, the self-cleavage is 0.01.

With G17C G22U A39G, the self-cleavage worked out at 0.28.

In the case of G17U G19C C37U, the self-cleavage was determined as 0.07.

Consider G17A C18A G29C G33U C42U, for which the self-cleavage came to 0.06.

With C18A U20C U34A C46A, the self-cleavage turned out to be 0.04.

For G17C C18U U28A, the self-cleavage was 0.34.

As for G17U A24C U43A, the self-cleavage was found to be 0.

C18A C37U G40A C46U: the self-cleavage worked out at 0.02.

Turning to G17A G27A G30A, the self-cleavage amounted to 0.1.

In the case of G17A C23U G33U A41C, the self-cleavage is 0.01.

As to G17U G33U G44U, the self-cleavage worked out at 0.01.

Take G17A U20G G21A: the self-cleavage was 0.06.

As for G17A C45G C46A, the self-cleavage was found to be 0.03.

With G17C G36U C46U, the self-cleavage was 0.03.

As for G17U G33A U38C C42A G44A, the self-cleavage was determined as 0.01.

On to G17A C18A A25C A26G A41C, for which the self-cleavage turned out to be 0.03.

As for C18G G19C U20A C31A, the self-cleavage was determined as 0.17.

In the case of G17A U28G C37A, the self-cleavage turned out to be 0.12.

For C18A A25C G27U, the self-cleavage was found to be 0.14.

Consider A16U G21U G22A C23A A26G A41C U43A C45G, for which the self-cleavage worked out at 0.02.

For the variant G17U A26G G30U C37G C42A, the self-cleavage is 0.03.

A16U G19U C31A G33A: the self-cleavage was 0.08.

As to G17A C23A U38G C42G, the self-cleavage is 0.02.

Turning to G17A G21C G44C, the self-cleavage is 0.08.

Take C18G A25G G40U: the self-cleavage is 0.01.

G17A G19A G40A A41G: the self-cleavage is 0.06.

For C18G C23G U28C G33A, the self-cleavage stood at 0.05.

For C18G A25C U34A, the self-cleavage stood at 0.

On to G17U G19A G27A C31U C46G, for which the self-cleavage is 0.13.

On to C18A G30A A39C, for which the self-cleavage was determined as 0.18.

For C18G A24C G27A C42A, the self-cleavage was 0.06.

In the case of G17C C18U U32A G35C G40U, the self-cleavage is 0.03.

For G17U U20C G44A C46U, the self-cleavage turned out to be 0.02.

Turning to G17U C18G G29A G35U, the self-cleavage was 0.05.

With G17A C18A G21A G30C, the self-cleavage stood at 0.11.

Consider C18G A24U G40C, for which the self-cleavage was found to be 0.02.

For G17U G33C U38C C45G, the self-cleavage was determined as 0.05.

G17C C18A G35U: the self-cleavage came out at 0.02.

Turning to C18A U32G G40U, the self-cleavage amounted to 0.

As to A16U U20G U38C C42G, the self-cleavage was found to be 0.01.

Take C18A G22A G29A U32A: the self-cleavage is 0.05.

Consider A16U G27U G33A G44A, for which the self-cleavage turned out to be 0.03.

With G17A A24G A41U C46A, the self-cleavage came out at 0.09.

Regarding A16U G40A G44U, the self-cleavage was determined as 0.31.

Regarding G17C U28G G44A, the self-cleavage is 0.03.

With C18G A24C G40C, the self-cleavage amounted to 0.01.

As for G17U C23A U34G C37U, the self-cleavage is 0.

Regarding G17U A24U C37G, the self-cleavage stood at 0.02.

With G17A G29U C31U G44C, the self-cleavage came out at 0.04.

For A16U U28A C31U, the self-cleavage amounted to 0.01.

On to A16U G17U C37G, for which the self-cleavage is 0.36.

Regarding G17U C18G G30A C31A G33U, the self-cleavage amounted to 0.61.

Take G17U C37A G44U: the self-cleavage worked out at 0.01.

For the variant G17C U20A A25G, the self-cleavage worked out at 0.28.

On to G17U U20A G35U G36A, for which the self-cleavage was found to be 0.07.

Turning to C18A G19C G36A, the self-cleavage came to 0.37.

Take C18A U20G U28C U34A: the self-cleavage was 0.01.

Take G17C G22C A25U: the self-cleavage came out at 0.97.

As for G17U G29U C31U U34G C42A G44A, the self-cleavage was 0.

C18G C42A C46G: the self-cleavage was determined as 0.04.

Take G17U U28G A41C C42A: the self-cleavage was found to be 0.08.

For G17A A24G U38A, the self-cleavage was 0.03.

As for C18A G27C C42G, the self-cleavage is 0.02.

Turning to A16U G22C G36A, the self-cleavage turned out to be 0.06.

Turning to C18G A25C U38C, the self-cleavage was 0.09.

Take G17A U20C C23U U32A: the self-cleavage is 0.03.

Consider C18A C37A C42G, for which the self-cleavage is 0.01.

In the case of G17U G21A A26G G33C, the self-cleavage worked out at 0.06.

As to G17U C18A G22U, the self-cleavage was found to be 0.07.

Turning to G17A G36U U43A C45A, the self-cleavage was 0.03.

In the case of G17C G19C U28C U34G, the self-cleavage came out at 0.15.

On to C18A G19A C42U, for which the self-cleavage stood at 0.52.

Regarding C18A G19C C23G, the self-cleavage stood at 0.77.

In the case of G17U C23U G27U G33C, the self-cleavage worked out at 0.08.

For C18A G33A A39G, the self-cleavage was determined as 0.05.

Turning to C18A G33C U43A, the self-cleavage was found to be 0.13.

Consider C18A A26U G30C, for which the self-cleavage was determined as 2.02.

G17C C18A G19C G21A G29U C42U: the self-cleavage is 0.13.

In the case of C18A C31G A39U A41G, the self-cleavage worked out at 0.01.

As to C18A A25G A26U A41G, the self-cleavage was determined as 0.02.

As for C18A G29U U43G, the self-cleavage turned out to be 0.03.

For G17C G33U G35U C46A, the self-cleavage was 0.05.

Take C18A A25G U34C G35U: the self-cleavage turned out to be 0.01.

G17U G27U G30U C46U: the self-cleavage was found to be 0.23.

Take G17A C18A G40U C42G: the self-cleavage amounted to 0.05.

As to C18A C23U A41U, the self-cleavage was 0.2.

Turning to C18A G27U G29U C46A, the self-cleavage was 0.5.

With C18A C31G C46U, the self-cleavage was determined as 0.1.

Take G17U G19A G27C U34C G35A U38C G40A G44A: the self-cleavage was found to be 0.03.

For the variant C18A G19C G29A G30U, the self-cleavage amounted to 0.56.

For the variant C18A G22A A24U U34C G40C, the self-cleavage was 0.01.

With G17A C23A U28C G29A, the self-cleavage came to 0.42.

G17C G33C C37A: the self-cleavage came to 0.01.

On to C18A C23U C45A, for which the self-cleavage was 0.05.

As for G17U G27C G30U C31G C46A, the self-cleavage was 0.06.

As to C18A G19A U32C, the self-cleavage is 0.05.

For the variant G17C U32A G33C G44C, the self-cleavage came to 0.02.

As to G17U A26G U28A, the self-cleavage is 0.12.

In the case of G17A U32C U43G, the self-cleavage came out at 0.19.

G17A U32C U43A: the self-cleavage is 0.08.

Take G17U U34C C45U: the self-cleavage is 0.01.

Turning to C18A U34A G44U, the self-cleavage amounted to 0.01.

Regarding G17C G35A A41U, the self-cleavage worked out at 0.06.

With C18A G21A U34A G35U, the self-cleavage stood at 0.01.

For the variant G17A G21A G44U, the self-cleavage was determined as 0.01.

In the case of G17C G19C U32A G40A, the self-cleavage came out at 0.04.

Regarding C18A U28G U32A, the self-cleavage is 0.03.

Take C18A C42U G44U: the self-cleavage was found to be 0.02.

As to G17A C31U A39C, the self-cleavage came to 0.04.

G17U A24G C42U: the self-cleavage is 0.02.

As to G17A G22C G35U C45A, the self-cleavage was found to be 0.02.

For A16U G21A G30U G35A C46U, the self-cleavage is 0.02.

As to A16U G17U U20C, the self-cleavage came to 0.

Turning to G17A C18A U28C G29C, the self-cleavage was 0.5.

On to G17A C18A A26U C37U, for which the self-cleavage is 0.02.

As for G17U C18A G36C A41C, the self-cleavage came out at 0.02.

In the case of C18A A26G U28A G36U, the self-cleavage amounted to 0.04.

As to G17U G22C G44C, the self-cleavage amounted to 0.06.

For the variant G17A C23A G40C, the self-cleavage came out at 0.04.

Regarding C18G A26U A41U, the self-cleavage was 0.13.

On to G17U G19A C23U G35C C42A, for which the self-cleavage was 0.03.

In the case of C18A G30C G36A, the self-cleavage amounted to 0.02.

Turning to G17C U28G A41C, the self-cleavage was found to be 0.13.

As for G17U G27C G35A, the self-cleavage stood at 0.07.

Take A16U G36U A41U: the self-cleavage came to 0.09.

On to G17C A24C G35A G40U C45A, for which the self-cleavage is 0.

Turning to G17C A25C G40C C42U G44U, the self-cleavage worked out at 0.01.

With A16U G30A C37U, the self-cleavage worked out at 0.08.

Take C18A U28A U38G: the self-cleavage was determined as 0.03.

As to G17A G19A C23U G29U G44A, the self-cleavage worked out at 0.01.

Take C18G G19A G36U: the self-cleavage stood at 0.11.

In the case of G17U A25U G33C, the self-cleavage amounted to 0.02.

With G17C C18G G21C G29U U34G, the self-cleavage is 0.02.

For the variant G17U G27U G36C, the self-cleavage is 0.01.

For the variant G17U U28G G35C, the self-cleavage came out at 0.06.

With G17C U34A C42A, the self-cleavage was 0.25.

For the variant G17A A24C U34C, the self-cleavage came out at 0.05.

As to A16U G40A C42G G44U C45A, the self-cleavage was 0.02.

Take G17C G27A U38C: the self-cleavage is 0.07.

Consider G17C C18U C23G A39G U43C, for which the self-cleavage amounted to 0.01.

For the variant G17A G19U G30C, the self-cleavage came to 0.34.

Regarding G17C G22U G29U, the self-cleavage was found to be 0.12.

Turning to C18A G19C U20A, the self-cleavage came out at 0.33.

As to G17A U32G G35U C46U, the self-cleavage was found to be 0.2.

C18A A25C U32G: the self-cleavage worked out at 0.05.

In the case of G17C U20A C31G, the self-cleavage is 0.29.

Regarding G17C C31U A41U C46U, the self-cleavage was determined as 0.02.

As for G17A G21C G27A A39C, the self-cleavage is 0.19.

Take G17U U20G G21A: the self-cleavage was determined as 0.05.

As for G17U G27A G30U, the self-cleavage was 1.49.

As for G17A G35U C42U, the self-cleavage amounted to 0.

G17C C23A G44A: the self-cleavage worked out at 0.09.

In the case of G17A G29C G33U U34C U38G, the self-cleavage turned out to be 0.02.

For the variant C18A A26G U28C G35U G40A, the self-cleavage was determined as 0.02.

A16U G22U G30A U34C G35A G36A C37A C46U: the self-cleavage was 0.02.

Consider A16U G17U G35C G40U C42U, for which the self-cleavage worked out at 0.01.

For C18A C23U A39U, the self-cleavage was found to be 0.34.

Consider C18A G19A U20C G30A C31A, for which the self-cleavage worked out at 0.2.

G17C G30U G33A: the self-cleavage came to 0.04.

C18A C23U C31A C42A: the self-cleavage turned out to be 0.01.

With A16U G22C U34G G35A, the self-cleavage turned out to be 0.01.

Consider G17U C31G C46U, for which the self-cleavage was determined as 0.41.

For the variant G17U G40U C42U, the self-cleavage was 0.03.

On to A16U G40A C46U, for which the self-cleavage turned out to be 0.06.

A16U U28C U38G: the self-cleavage was determined as 0.

Take C18A A24U G36A A39U: the self-cleavage is 0.01.

As for G17C U20A A24G G27A, the self-cleavage amounted to 1.37.
